# Laboratory results: patent US11178870B2 (priority 2017, dated 2021)
# Experiments:
# [1] = system: Colletotrichum orbiculare; experiment: whole plant or invertebrate; conditions: in Cucumis sativus, read-out: Test H control value
# [2] = system: Colletotrichum orbiculare; conditions: in vivo
Compound,pest or weed control at 250 ppm [1] [%],Test H control value [2]
"CCN1C(=O)CCC(n2cccn2)=C1c1c(F)cc(F)cc1F [compound 25, 1-ethyl-5-(1H-pyrazol-1-yl)-6-(2,4,6-trifluorophenyl)-3,4-dihydropyridin-2(1H)-one]",> 50,–
"CCn1c(-c2c(F)cccc2F)c(-c2ocnc2C)cc(Cl)c1=O [compound 43, 3-chloro-6-(2,6-difluorophenyl)-1-ethyl-5-(4-methyloxazol-5-yl)pyridin-2(1H)-one]",> 50,–
"CCn1c(-c2c(F)cc(F)cc2F)c(-n2cc(Cl)cn2)cc(Br)c1=O [compound 71, 5-(4-chloro-1H-pyrazol-1-yl)-1-ethyl-3-bromo-6-(2,4,6-trifluoro-phenyl)pyridin-2(1H)-one]",> 50,–
"CCn1c(-c2c(F)cccc2F)c(-c2cccs2)ccc1=O [compound 5, 6-(2,6-difluorophenyl)-1-ethyl-5-(thiophen-2-yl)pyridin-2(1H)-one]",> 50,–
"CCn1c(-c2c(F)cc(F)cc2F)c(-c2ocnc2Cl)cc(Cl)c1=O [compound 112, 3-chloro-5-(4-chlorooxazol-5-yl)-1-ethyl-6-(2,4,6-trifluoro-phenyl)pyridin-2(1H)-one]",> 50,–
"CCn1c(-c2c(F)cc(OC)cc2F)c(-n2cc(Br)cn2)cc(Cl)c1=O [compound 72, 5-(4-bromo-1H-pyrazol-1-yl)-3-chloro-6-(2,6-difluoro-4-methoxyphenyl)-1-ethylpyridin-2(1H)-one]",> 50,–
"CCn1c(-c2c(F)cc(F)cc2F)c(-n2cc(Br)cn2)cc(Cl)c1=O [compound 70, 5-(4-bromo-1H-pyrazol-1-yl)-3-chloro-1-ethyl-6-(2,4,6-trifluorophenyl)pyridin-2(1H)-one]",< 50,–
"CCn1c(-c2c(F)cc(F)cc2F)c(-c2ccnn2C)cc(Cl)c1=O [compound 20, 3-chloro-1-ethyl-5-(1-methyl-1H-pyrazol-5-yl)-6-(2,4,6-trifluorophenyl)pyridin-2(1H)-one]",> 50,–
"CCn1c(-c2c(F)cc(F)cc2F)c(-n2cccn2)ccc1=O [compound 26, 1-ethyl-5-(1H-pyrazol-1-yl)-6-(2,4,6-trifluorophenyl)pyridin-2(1H)-one]",> 50,–
"CCn1c(-c2c(F)cc(OC)cc2F)c(-n2cc(Cl)cn2)cc(Cl)c1=O [compound 41, 3-chloro-5-(4-chloro-1H-pyrazol-1-yl)-6-(2,6-difluoro-4-methoxyphenyl)-1-ethylpyridin-2(1H)-one]",> 50,–
"CCn1c(-c2c(F)cc(F)cc2F)c(-n2ncnc2Br)cc(Cl)c1=O [compound 35, 5-(5-bromo-1H-1,2,4-triazol-1-yl)-3-chloro-1-ethyl-6-(2,4,6-trifluorophenyl)pyridin-2(1H)-one]",> 50,–
"CCn1c(-c2c(F)cc(F)cc2F)c(C2OCCCO2)cc(Cl)c1=O [compound 8, 3-chloro-5-(1,3-dioxan-2-yl)-1-ethyl-6-(2,4,6-trifluorophenyl)-pyridin-2(1H)-one]",< 50,–
"CCn1c(-c2c(F)cc(F)cc2F)c(-c2nn(C)cc2Br)cc(Cl)c1=O [compound 24, 5-(4-bromo-1-methyl-1H-pyrazol-3-yl)-3-chloro-1-ethyl-6-(2,4,6-trifluorophenyl)pyridin-2(1H)-one]",> 50,–
CCn1c(-c2c(F)cccc2F)c(-c2cccnc2Cl)cc(Cl)c1=O [compound 18],> 50,–
"CCn1c(-c2c(F)cccc2F)c(-c2ccc(Cl)s2)ccc1=O [compound 6, 5-(5-chlorothiophen-2-yl)-6-(2,6-difluorophenyl)-1-ethylpyridin-2(1H)-one]",< 50,–
"CCn1c(-c2c(F)cc(F)cc2F)c(-n2cc(Cl)cn2)ccc1=O [compound 27, 5-(4-chloro-1H-pyrazol-1-yl)-1-ethyl-6-(2,4,6-trifluorophenyl)-pyridin-2(1H)-one]",> 50,–

Compound,pest or weed control at 250 ppm [1] [%],Test H control value [2]
"CCn1c(-c2c(F)cc(F)cc2F)c(-c2c(Br)cnn2C)cc(Cl)c1=O [compound 21, 5-(4-bromo-1-methyl-1H-pyrazol-5-yl)-3-chloro-1-ethyl-6-(2,4,6-trifluorophenyl)pyridin-2(1H)-one]",> 50,–
"CCn1c(-c2c(F)cccc2F)c(-c2ccc(Cl)s2)cc(Cl)c1=O [compound 7, 3-chloro-5-(5-chlorothiophen-2-yl)-6-(2,6-difluorophenyl)-1-ethylpyridin-2(1H)-one]",< 50,–
CCn1c(-c2c(F)cc(F)cc2F)c(-n2cc(C)cn2)cc(Cl)c1=O [Compound 85],–,H (key: H shows the control value more than 50%; L shows the control value of 50% or less)
CCn1c(-c2c(F)cc(OC)cc2F)c(-c2oc(Br)nc2Br)cc(Cl)c1=O [Compound 116],–,H (key: H shows the control value more than 50%; L shows the control value of 50% or less)
CCn1c(-c2c(F)cc(F)cc2F)c(-c2cccnc2Cl)cc(Br)c1=O [Compound 63],–,H (key: H shows the control value more than 50%; L shows the control value of 50% or less)
CCn1c(-c2c(F)cc(OC)cc2F)c(-c2ocnc2Cl)cc(Cl)c1=O [Compound 115],–,H (key: H shows the control value more than 50%; L shows the control value of 50% or less)
CCn1c(-c2c(F)cc(F)cc2F)c(-n2nc(C)cc2C)ccc1=O [Compound 93],–,H (key: H shows the control value more than 50%; L shows the control value of 50% or less)
CCn1c(-c2c(F)cc(OC)cc2F)c(-n2cc(Cl)c(C)n2)cc(Cl)c1=O [Compound 143],–,H (key: H shows the control value more than 50%; L shows the control value of 50% or less)
CCn1c(-c2c(F)cc(F)cc2F)c(-c2oc(Br)nc2Br)cc(Br)c1=O [Compound 96],–,L (key: H shows the control value more than 50%; L shows the control value of 50% or less)
CCn1c(-c2ccccc2Cl)c(-n2cc(Cl)cn2)cc(Cl)c1=O [Compound 172],–,H (key: H shows the control value more than 50%; L shows the control value of 50% or less)
CCn1c(-c2ccc(F)cc2Cl)c(-n2cc(Cl)cn2)cc(Br)c1=O [Compound 158],–,H (key: H shows the control value more than 50%; L shows the control value of 50% or less)
O=c1ccc(-c2cccnc2Cl)c(-c2c(F)cccc2F)n1CC(F)F [Compound 56],–,H (key: H shows the control value more than 50%; L shows the control value of 50% or less)
CCn1c(-c2c(F)cc(F)cc2F)c(-c2c(Cl)cnn2C)cc(Cl)c1=O [Compound 22],–,H (key: H shows the control value more than 50%; L shows the control value of 50% or less)
CCn1c(-c2c(F)cc(F)cc2F)c(-n2ncc(C)c2Cl)cc(Cl)c1=O [Compound 83],–,H (key: H shows the control value more than 50%; L shows the control value of 50% or less)
CCn1c(-c2c(F)cccc2F)c(-c2ocnc2I)cc(Cl)c1=O [Compound 74],–,H (key: H shows the control value more than 50%; L shows the control value of 50% or less)
Cn1c(-c2c(F)cccc2F)c(-c2cccnc2Cl)cc(Br)c1=O [Compound 106],–,H (key: H shows the control value more than 50%; L shows the control value of 50% or less)
